Each structure is given as a SMILES string. The campaign covered roughly 52,000 compounds. About 1,700 (3.3%) were called active. No stated cut-off is given here; in the data, active means survival mostly below about 52% (no sharp cut-off); inactive means mostly above about 56%. This is one part of the list.

The subject of this assay is Wild type. Put plainly: growth inhibition of S. aureus wild type versus tarO mutant, primary screen, teichoic acid synthesis inhibitors, RN4220, OD600 (AID 463173). Particulars: S. aureus RN4220 wild type/DeltatarO growth, OD600, 18 h, active compounds read low, screened at 18.75 µg/mL (by protocol).
On to `COCCn1c(C)cc(O)c(C(c2ccccc2OC)N2CCCCC2)c1=O` (centres undefined), for which the survival was inactive: 88%. As to `COc1ccc(OC)c(CCNC(=O)c2ccc3[nH]c(C)c(C)c3c2)c1`, the survival is inactive: 153%. Under `CC1(C)CC2CC(C)(CN2C(=O)CCCN2C(=O)c3ccccc3C2=O)C1` (centres undefined) stands inactive: 115%; under `Cc1ccc(C)c(N2CCN(C(=O)c3cccn3-c3nnc(N4CCCCC4)s3)CC2)c1`, inactive: 65%; under `COc1ccccc1CCNC(=O)CCc1c(C)c2cc3c(C)coc3cc2oc1=O`, inactive: 82%. Under `COc1cccc(CNC(=O)c2cc3c(=O)n(C)c4ccccc4c3n2C)c1` stands inactive: 92%. The result for `COc1ccc2cc(CNc3ccccc3)c(=O)n(CC(=O)Nc3ccc(C)cc3C)c2c1` reads active: -2%. Regarding `Cc1ccc2c(CC(=O)Nc3c(C(=O)Nc4cccc(Cl)c4)oc4ccccc34)coc2c1C`, the survival is inactive: 88%.

For `O=C(NN1C(=O)C2C3c4ccccc4C(c4ccccc43)C2C1=O)c1cccnc1` (centres undefined), the survival was inactive: 108%. Under `Cc1ccc2nc(SCc3nc(-c4ccccc4C)no3)[nH]c2c1` stands inactive: 27%. Under `CC(C)(C)NC(=O)C1CC(=O)OC12CCCCC2` (centres undefined) stands inactive: 104%; under `Cc1ccc(N2CCN(C(=O)C3CCC(CNS(=O)(=O)c4ccc(Br)s4)CC3)CC2C)cc1` (centres undefined), inactive: 70%. For `Cc1ccc(NC(=O)Cn2c(=O)c(C(F)(F)F)nc3ccccc32)c(C)c1`, the survival was inactive: 71%. The result for `CCCCN(CC)CCNC(=O)Cn1c(=O)c2cccn2c2cccnc21` reads inactive: 86%; that for `CCc1cccc(OCC(=O)Nc2c[nH]c(=O)[nH]c2=O)c1`, inactive: 102%; that for `COc1ccc(NC(=O)CSC2=Nc3ccccc3C3=NC(Cc4ccccc4)C(=O)N23)cc1Cl` (centres undefined), inactive: 68%. The result for `CN(Cc1ccccc1)C(=O)Cn1ncc2c3ccccc3n(Cc3cccc(Cl)c3)c2c1=O` reads inactive: 94%.

Regarding `Cc1ccc(Nc2cc(C(=O)NC3CCCC3)c3ccccc3n2)c(C)c1`, the survival is inactive: 91%.

Regarding `O=S(=O)(Nc1cccnc1)c1ccc(C2CCCCC2)cc1`, the survival is inactive: 110%. As to `Cc1ccc(Cl)cc1Nc1sc(C(=O)c2ccccc2)c(N)c1S(=O)(=O)c1ccccc1`, the survival was inactive: 91%.

Consider `CC(C)(C)c1ccc(C(=O)N2CC(=O)Nc3ccc(F)cc3C2c2ccc(F)cc2)cc1` (centres undefined), for which the survival is inactive: 86%. The result for `Cc1cc(C)c2oc(-c3cccc(NC(=O)c4cc5ccccc5o4)c3)nc2c1` reads inactive: 65%; that for `COc1cc(C)nc(N2CCCC(C(=O)Nc3ccccc3Br)C2)n1` (centres undefined), inactive: 106%. The result for `CCc1cnc2c(c1SCC(=O)NCc1ccccc1)c(=O)n(C)c(=O)n2C` reads inactive: 99%; that for `COc1cc(CCC(=O)NCc2ccc3c(c2)CCN3C(=O)c2cccc(C)c2)cc(OC)c1OC`, inactive: 133%; that for `COc1cc(C2c3c(oc4ccccc4c3=O)C(=O)N2Cc2ccccc2Cl)ccc1O` (centres undefined), inactive: 82%. Under `CCc1ccc(N(CC)C(=O)Cn2c(=O)oc3ccccc32)cc1` stands inactive: 71%.

As for `Cc1ccc(-n2ncc(C(=O)Nc3ccc4c(c3)OCO4)c2C2CCN(C(=O)OC(C)(C)C)CC2)cc1`, the survival was inactive: 85%. Under `Cc1nc2scc(C)n2c(=O)c1S(=O)(=O)Nc1ccc(N2CCOCC2)cc1` stands inactive: 82%.

With `Cc1ccnc(NS(=O)(=O)c2cc(-c3cc(C)no3)ccc2C)c1`, the survival is inactive: 78%.

With `COc1cccc2cc(C(=O)NCCc3c(C)[nH]c4ccc(Br)cc34)c(=O)oc12`, the survival was inactive: 129%.

Take `COc1ccc(NC(=O)C2CCCN(S(=O)(=O)c3ccc4c(c3)CCCC(=O)N4)C2)c(OC)c1` (centres undefined): the survival is inactive: 71%.

For the compound `Cc1nn(S(=O)(=O)c2ccc(F)cc2)c(C)c1S(=O)(=O)N1CCC(C)CC1`, the survival was active: -3%.

Regarding `CCOCCn1ccc2c(OCC(=O)Nc3ccc(OC(F)(F)F)cc3)cccc2c1=O`, the survival was inactive: 74%.

On to `O=C(CN1C(=O)CC(c2ccccc2)Sc2ccccc21)Nc1cccc(Cl)c1` (centres undefined), for which the survival was inactive: 92%. The result for `CC(=O)c1cccc(NC(=O)CCS(=O)(=O)c2ccc(Br)s2)c1` reads inactive: 74%; that for `CCOC(=O)c1cc2c(=O)n3ccccc3nc2n(CC(C)C)c1=NC(=O)c1cc2ccccc2o1`, inactive: 60%. Under `CC(C)(C)N1Sc2ccccc2NC1=S` stands inactive: 94%; under `Cc1ccc(S(=O)(=O)c2cn(Cc3ccc(F)cc3)c3cc(F)c(F)cc3c2=O)cc1`, inactive: 95%. For `Cc1ccc(CCNC(=O)C2CCN(c3nnc(-n4cccc4CNc4ccc(C)cc4)s3)CC2)cc1`, the survival is inactive: 139%.

In the case of `CCN(C(=O)Cn1c(=O)oc2cc(Cl)ccc21)c1cccc(C(F)(F)F)c1`, the survival was inactive: 83%.

Take `COc1ccc(/C=C/C(=O)Nc2nc3n(n2)C(c2ccccc2)C=C(c2ccccc2)N3)cc1` (centres undefined): the survival was inactive: 82%. As for `Cc1ccc(-c2cnc(NCc3ccc(C(F)(F)F)cc3)n2C)cc1`, the survival was active: -13%. Under `C=CCNC(=S)N1CCC(C(=O)c2ccc(C)cc2)CC1` stands inactive: 117%; under `CN1C(=O)C2(c3ccccc31)N(c1cccc(F)c1)C(=O)CS2(=O)=O` (centres undefined), inactive: 128%; under `COCCCNC(=O)c1cc(-c2cccnc2)nc2ccc(S(=O)(=O)N3CCC(C)CC3)cc12`, inactive: 126%. The result for `COc1ccccc1NC(=O)N1CCN(c2cc(-c3ccccc3)nc3ncnn23)CC1` reads inactive: 99%; that for `O=C(NCc1ccccc1Cl)c1cnc2sc(N3CCCCC3)nn2c1=O`, inactive: 81%.

For the compound `COc1ccc(Cl)cc1NC(=O)c1c(NCc2sccc2C)sc2c1CCCC2`, the survival is inactive: 70%.

On to `Clc1ccccc1CNc1nc2ccccc2c2nc(-c3cccnc3)nn12`, for which the survival is inactive: 85%.

`Cc1ccc(CN(C2CCCC2)S(=O)(=O)c2ccc(S(=O)(=O)N3CCCC(C)C3)cc2)o1` (centres undefined): the survival was inactive: 101%. As to `O=S(=O)(c1ccc(Br)cc1)c1nc(-c2cccs2)oc1SCc1ccccc1F`, the survival is inactive: 69%. The result for `O=C(Cn1nnc(-c2ccc(Cl)cc2)n1)NCc1ccc(F)cc1` reads inactive: 83%; that for `COc1ccc(OC)c(CNS(=O)(=O)c2c(C(=O)N3CCCCCC3)c(C)n(C)c2C)c1`, inactive: 135%; that for `COc1ccccc1N1CCN(C(=O)CCNS(=O)(=O)c2ccc3c(c2)CCN3C(=O)C2CC2)CC1`, inactive: 90%. Under `Cc1ccc(CNC(=O)Cn2cc(S(=O)(=O)Cc3ccccc3F)c3ccccc32)cc1` stands inactive: 121%; under `Cc1ccc(NC(=O)c2cnc(SCC(=O)Nc3cc(C)on3)n(C)c2=O)cc1`, inactive: 78%.

With `COc1ccc(Cl)cc1NC(=O)CSC1=Nc2ccccc2C2=NC(CC(=O)NCc3ccc4c(c3)OCO4)C(=O)N12` (centres undefined), the survival was inactive: 76%.

For `COc1ccccc1C(=O)Nc1ccc2c(c1)nc(CN1CCCCC1)n2C`, the survival was inactive: 81%. Under `CCn1c(=O)n(CC)c2cc(N3CCCCC3)c(NC(=O)Nc3ccccc3C(F)(F)F)cc21` stands inactive: 75%; under `Cc1cc(C)n2nc(SCC(=O)Nc3cccc(C(F)(F)F)c3)nc2n1`, inactive: 56%. Under `C=CCc1ccccc1OCC(O)CN1CCN(c2ccccc2)CC1` (centres undefined) stands inactive: 54%. Regarding `CCc1ccccc1NC(=O)c1cnc2sc(N3CCOCC3)nn2c1=O`, the survival was inactive: 136%. Regarding `CCOC(=O)c1ccc(NC(=O)CC2C(=O)N(c3cccc(OC)c3)C(=O)N2Cc2ccc(OC)cc2)cc1` (centres undefined), the survival is inactive: 76%.

In the case of `COc1ccc(C(CC(=O)NCc2ccccc2)N2Cc3ccccc3C2=O)cc1` (centres undefined), the survival is inactive: 124%.

For the compound `CCC(Oc1ccc(F)cc1)C(=O)Nc1nc(-c2ccc(F)cc2)ns1` (centres undefined), the survival was active: -1%.

For the compound `CN(Cc1ccccc1)C(=O)CSc1nc2ccccc2n1Cc1ccccc1F`, the survival was inactive: 68%. Consider `Cc1ccccc1NC(=O)CSc1nc(=O)n(CCN2CCOCC2)c2c1CCC2`, for which the survival was inactive: 92%.

For `CC(C)c1cnc2c(c1SCC(=O)NCc1ccccc1)c(=O)n(C)c(=O)n2C`, the survival was inactive: 73%. Under `Cc1ccc(-c2nc3ccc(Cl)cn3c2Nc2ccccc2C)s1` stands inactive: 94%.

Take `COC(=O)c1ccc(NC(=O)CCc2c(C)nc3c(c2C)c(=O)n(C)c(=O)n3C)cc1`: the survival is inactive: 80%. As to `COc1ccccc1Cc1nc2ccccc2nc1SCC(=O)Nc1cccc(Cl)c1C`, the survival is inactive: 71%. With `Cc1sc2c(c1C)c(=O)n(-c1cccc(C(F)(F)F)c1)c(=O)n2Cc1ccc(F)cc1`, the survival is inactive: 84%. The result for `COCCNC(=O)Cn1nc(C(F)(F)F)cc1C` reads inactive: 109%; that for `N#Cc1c(N)nc2c(c1-c1ccc3c(c1)OCO3)CCc1ccccc1-2`, inactive: 112%; that for `COc1cc(NC(=O)CSC2=Nc3ccccc3N=C(c3ccc(F)cc3)C2)cc(OC)c1`, inactive: 71%. Under `Cc1cc(N2CCOCC2)cc(C)[n+]1[O-]` stands inactive: 96%. Under `C#CCN1C(=O)C2C(C(=O)NC)C3C=CC2(O3)C1C(=O)NCc1ccc(OC)cc1` (centres undefined) stands inactive: 107%. Consider `COc1ccc(CNC(=O)c2cnc3cc(C)ccn3c2=O)cc1`, for which the survival was inactive: 85%.

As for `CCCCN(CC)C(=O)Cn1nc(C)c2c(C)n(-c3ccccc3)nc2c1=O`, the survival was inactive: 78%. The result for `Nc1nnc(C2CCCC2)s1` reads inactive: 110%; that for `CCOC(=O)c1c(C)oc2nc(C)nc(NCc3cccc(OC)c3)c12`, inactive: 59%. Under `CCOCN(C(=O)CSc1nc2ccccc2[nH]1)c1c(C)cccc1CC` stands inactive: 127%. Under `Cc1cc2c(C)nc3ccc(C(=O)O)cc3c2o1` stands inactive: 111%. `COc1ccccc1CNC(=O)CCCn1c(=O)c2ccccc2n(Cc2ccccc2F)c1=O`: the survival is inactive: 134%. For the compound `Cc1ccc(N2CC(C(=O)Nc3ccc(Cl)cc3Cl)CC2=O)cc1` (centres undefined), the survival is inactive: 82%. The result for `Cc1cccc(Cn2c(SCc3ccc(C(=O)NC4CCCCC4)cc3)nc3cccnc32)c1` reads inactive: 75%. Under `CCOC(=O)c1cc(OC(=O)c2ccc(OC)c(OC)c2)n(-c2ccccc2)n1` stands inactive: 73%.

As for `C/C(=N/NC(=O)C(F)(F)F)c1cccs1`, the survival was inactive: 94%.

The record behind these values is PubChem BioAssay AID463173 (ICCB-Longwood Screening Facility, Harvard Medical School, 2010).
